# Measured values from the RNAGym collection of RNA variant scans (doi:10.1073/pnas.2313332121).
# Variants at the floor of the assay are shown more often than the library holds them.
# B1: TPR 5TU (parent)
# chain: GGAUCUUCUCGAUCUAACAAAAAAGACAAAUCUGCCACAAAGCUUGAGAGCAUCUUCGGAUGCAGAGGCGGCAGCCUUCGGUGGCGCGAUAGCGCCAACGUUCUCAACUAUGACACGCAAAACGCGUGCUCCGUUGAAUGGAGUUUAUCAUG
# Variants of: B1
# Experiment: polymerase ribozyme fitness, log enrichment relative to wild type (log ratio); higher = more active; in vitro selection for triplet polymerase activity
# In short: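 Mutant libraries for each subunit of a heterodimeric triplet polymerase ribozyme were made by PCR and then transcribed. Each library underwent one round of in vitro selection in triplicate: annealing with a biotinylated primer, the partner subunit and triplets, frozen incubation at −7 °C, gel excision of extended constructs, streptavidin-bead capture and RT-PCR. Input and output libraries were Illumina-sequenced, and only genotypes with ≥10 input reads and ≥1 read per output were kept. Fitness is the logarithm, base 2, of genotype enrichment over wild-type enrichment, computed from inverse-variance-weighted replicate averages.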
row,Variant,polymerase ribozyme fitness (log ratio)
1,A12U A40G A97U U134C A138G,≤ -4.2
2,A12C C36G U45A G84A,≤ -4.2
3,A12G A16U A24U C38U G58C C69G C125U A150U,≤ -4.2
4,A12C G50U C57A C87G G128A,≤ -4.2
5,A12C C54U U77G A98G C105G,≤ -4.2
6,A12G A28U U109G A137C U139G U148G,≤ -4.2
7,A12G C14U C85U C114A U151A,≤ -4.2
8,A12U C36G G92C A147G,≤ -4.2
9,A12G A47G C76G C85G A120U G143A A150C,≤ -4.2
10,A12G A52C G68C U102C A120U C125U U144A,≤ -4.2
11,A12G G48A C54U C85G G117U,-2.26
12,A12U A22C A26C A28G U56A A66C C95U C114U,≤ -4.2
13,A12U A17U C18U A29U C38G A40C A52C C57U G83A U90G A97U U135C,≤ -4.2
14,A12U U31G C35G A64U G100A G133U,≤ -4.2
15,A12G A40G U44A U45A C93G C118U U139A U146A,≤ -4.2
16,A12G A29G C95U U104A G141A,≤ -4.2
17,A12G A26G A52U A91G G141C,≤ -4.2
18,A12U C35A C38U U90G G92A G140U U151A,≤ -4.2
19,A12U A39G C95U,-2.3
20,A12C G25U U55A U56C G83C,≤ -4.2
21,A12G U31C G59U G84U G117C G141C,≤ -4.2

row,Variant,polymerase ribozyme fitness (log ratio)
1,A12G G50U C51G G83A U90A G92C A98U U109A,≤ -4.2
2,A12U A26U A29U A60G G86A,≤ -4.2
3,A12G C32G C72A G92U A113C G141C A147G,≤ -4.2
4,A12G C36G A98U U127C,≤ -4.2
5,A12U C14G A29C C32U U45A G80C,≤ -4.2
6,A12C C87A U130C,≤ -4.2
7,A12G C14G A17G G83U C95A C99A A120G U127G C149U,≤ -4.2
8,A12U C57U G86U C96U A107U A113C C114U A121U G140A A150G,≤ -4.2
9,A12U G74A A89U C93G,≤ -4.2
10,A12U U13A A20U A29G C69A C76A C95A G112C A113C A150G,≤ -4.2
11,A12U A23C G88A,≤ -4.2
12,U13A A17U C32A U56G C76A G88A A106G U134A U145G U148C,≤ -4.2
13,A12G A52U U53A G59A G71A G81U C87U,≤ -4.2
14,A12U G34C A60U G68U C95G C105A,≤ -4.2
15,A12C C38U G50C U53A U55G G71U G92U U148C,≤ -4.2
16,A12G U45A C57G U78A G80U C103A C118G,≤ -4.2
17,A12C G59C C87A,≤ -4.2
18,A12G C14U A17G A47C C87G C93G G143U,≤ -4.2
19,A12G C14G A17G A21C G34C C75A C96A A115U U144A,≤ -4.2
20,A12G A29C C75G A122U A150C,≤ -4.2
21,A12U U53A G141U,-1.08

row,Variant,polymerase ribozyme fitness (log ratio)
1,A12U A17G A22U G48C U61A G71A U145C,≤ -4.2
2,A12U G84C C93U G140A,≤ -4.2
3,A12G C35U G83A,-0.598
4,A12U U53A C72A C87U U139A G152A,≤ -4.2
5,A12U U15C A17C C18G C35G C54U A66U A91U,≤ -4.2
6,A12U U45A G83U G126U,≤ -4.2
7,A12C U77C C85A C108A U111C A113U,≤ -4.2
8,A12C G83C G88C C149G,≤ -4.2
9,A12G U13G A121G,-2.27
10,A12U A147U,0.945
11,A12U A122U A147C,-0.484
12,A12C G46C C93U G140U,≤ -4.2
13,A12G C38U A52C U55A C57G C95G U111G C125U C129A G152A,≤ -4.2
14,A12U C27U G50A C76G,≤ -4.2
15,A12C U33A G92A,≤ -4.2
16,A12U C75G A107G C125A,≤ -4.2
17,A12G C72G C87G U146G,≤ -4.2
18,A12G A60U G92A U127A A142U,≤ -4.2
19,A12G C14U A26G G46A U82C,≤ -4.2
20,A12U G25U C63G C76G C87A A150C,≤ -4.2
21,A12G A19G A30U C43U C54G C85G C129G G143A,≤ -4.2

row,Variant,polymerase ribozyme fitness (log ratio)
1,A12G G83A C99G C103G C108G,≤ -4.2
2,A12C C57U C76G C96U,≤ -4.2
3,A12U G80U C108U,≤ -4.2
4,A12G A16U C54U A73G G83U G84C C95G G140C,≤ -4.2
5,A12U C38U G71A,≤ -4.2
6,A12U A52G C96U A120C G152U,≤ -4.2
7,A12U C32G A91G,≤ -4.2
8,A12G C27A A47C G81A C103U A122G,≤ -4.2
9,A12U U56A C63G G74C C93A,≤ -4.2
10,A12U C85A U135G,≤ -4.2
11,A12C C27G G88C C118G,≤ -4.2
12,A12C C99U C105G,≤ -4.2
13,A12G A30C U45A C51G G74C U78G C87A G143A U148A,≤ -4.2
14,A12U A37C U56A A60C C76A G92A U135C G140C,≤ -4.2
15,A12G U31A U55A U77A C93U G100A U102G G140C,≤ -4.2
16,U13A A16U A29C A37U G140C,≤ -4.2
17,A12U A29U U31A G42A C43G G83A C87U,≤ -4.2
18,A12G C14U A60C U77C G83C G94U C108G C118U,≤ -4.2
19,A12U G81A C85A G92C C93U C103G A106U C114G A147C,≤ -4.2
20,A12U C87U A120U,-0.814
21,A12C C43U A52C G84U C93G C132G,≤ -4.2
